No constants are given. Whether binding was seen depends on the method and setting. Some results given as binding are weak or reduced against the parent protein; the word gives no strength. For part of these data: Where a sequence is shown, tags or fusion partners need not be part of it.
Columns and labels:
Assay in all cases: two-hybrid; AD-DAO co-transformed with BD-G72 constructs into S. cerevisiae AH109; growth on SD/-Leu/-Trp/-Ade/-His (SD/-4) plates, 30 °C, 3 to 4 days
BD-G72(1-122) = target: T1, BD-G72(1-122) (UniProt P59103)
T1 sequence: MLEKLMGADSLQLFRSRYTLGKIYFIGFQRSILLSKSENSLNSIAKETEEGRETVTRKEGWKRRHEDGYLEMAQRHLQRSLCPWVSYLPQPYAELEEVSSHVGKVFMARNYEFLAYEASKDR

The chains behind the UniProt entries cited, without tags or fusion partners.
UniProt P14920: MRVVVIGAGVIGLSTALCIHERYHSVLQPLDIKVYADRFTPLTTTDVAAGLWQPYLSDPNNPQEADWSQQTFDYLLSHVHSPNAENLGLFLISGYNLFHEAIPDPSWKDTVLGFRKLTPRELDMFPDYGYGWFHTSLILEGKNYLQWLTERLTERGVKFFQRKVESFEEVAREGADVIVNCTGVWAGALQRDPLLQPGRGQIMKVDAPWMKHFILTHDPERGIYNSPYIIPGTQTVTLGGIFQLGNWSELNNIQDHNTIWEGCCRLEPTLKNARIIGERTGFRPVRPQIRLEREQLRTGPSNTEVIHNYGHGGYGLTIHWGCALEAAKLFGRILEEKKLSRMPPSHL

BD-G72(1-35) = target: T2, BD-G72(1-35) (UniProt P59103)
T2 sequence: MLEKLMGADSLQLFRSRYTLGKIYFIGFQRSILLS

BD-G72(1-60) = target: T3, BD-G72(1-60) (UniProt P59103)
T3 sequence: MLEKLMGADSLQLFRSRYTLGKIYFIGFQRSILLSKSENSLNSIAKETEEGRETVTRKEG

[1] = target: BD-G72 (full-length G72 N-terminally tagged with the binding domain) (UniProt P59103)
BD-G72(1-137) = target: T4, BD-G72(1-137) (UniProt P59103)
T4 sequence: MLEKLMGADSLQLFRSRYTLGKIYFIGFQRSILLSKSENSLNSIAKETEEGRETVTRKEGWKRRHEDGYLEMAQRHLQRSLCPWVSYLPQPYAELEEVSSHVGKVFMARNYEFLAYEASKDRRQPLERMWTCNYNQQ

BD-G72(1-20) = target: T5, BD-G72(1-20) (UniProt P59103)
T5 sequence: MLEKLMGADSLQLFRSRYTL

AD-DAO (D-amino acid oxidase N-terminally tagged with the activation domain) (from UniProt P14920 1-347) (enzyme)
binding (BD-G72(1-122)): no binding
binding (BD-G72(1-35)): no binding
binding (BD-G72(1-60)): no binding
binding [1]: binds
binding (BD-G72(1-137)): no binding
binding (BD-G72(1-20)): no binding

Source: article PMC3907796
